Patent US9833497B2, “Human originated EGF domain proteins and use of the same” (CHENGDU SOURCEBIO LIMITED-LIABILITY COMPANY, priority 2013, dated 2017)

Key:
Assay type in all cases: cell-based
[1] = system: E. coli DH5α; test: Antibacterial activity: MIC and growth curve against E. coli DH5α in 96-well plate; details: minimal inhibitory concentration against E. coli DH5α, 5×10^5 CFU/mL, 37° C., judged after 8 h
Method: 1. E. coli DH5α was exemplified. E. coli DH5α was streaked and cultured on LB solid medium. Then, a typical clone was picked and inoculated into common LB liquid medium, cultured at 37° C. with shaking at 185 rpm until the logarithmic growth phase was reached (OD600 of about 0.5). The bacterial culture was centrifuged at 4000×g for 3 min, the supernatant was discarded, and the thalli were resuspended with fresh LB medium.
2. The above-mentioned bacterial suspension was diluted and inoculated into a 96-well plate with the total volume of 100 μL per well and a bacterial count of 5×10^5 CFU/mL.
3. The recombinant protein hF VII-EGF1 was added to the above-mentioned wells with the final protein concentration in the well of the highest protein concentration being 50 μg/mL. Basing on this final concentration, a two-fold serial dilution was performed till a protein concentration gradient consisting of 50, 25, and 12.5 μg/mL was set up. Three parallel wells were set up for each concentration in the gradient.
4. The above-mentioned 96-well plate was placed and cultured at 37° C. in shaking incubator shaking at 175 rpm. Samples were taken every 30 min, the absorbance values were determined at 600 nm wavelength under a ultra violet spectrophotometer, and an inhibition curve was plotted. […] The minimal inhibitory concentration MIC is defined as the lowest concentration of the recombinant protein at which there is no growth of the bacteria.
According to the experimental procedures in Example 14, the minimal inhibitory concentrations (MIC, μg/mL) of the other human-originated EGF domain proteins (PRT2 to PRT1498 in Table 1) for E. coli DH5α were determined.

[2] = system: E. coli BL21; test: MIC against Gram-negative bacteria: E. coli BL21; details: for MIC (μg/mL) E. coli BL21 / MIC against E. coli BL21 / MIC E. coli BL21: 5×10^5 CFU/mL
Method: (§1) 1. Gram-negative bacteria, such as E. coli BL21, Pseudomonas aeruginosa, Klebsiella pneumonia, Enterobacter cloacae, Aeromonas hydrophila, Citrobacter diversus, Moraxella catarrhalis, Proteus mirabilis, Proteus vulgaris, Serratia marcescens, etc were streaked on solid LB medium and cultured respectively. Then, typical clones were picked, inoculated into common liquid LB medium respectively, and cultured at 37° C. with shaking at 185 rpm until the McFarland specific turbidity was 0.5. The bacterial culture of each of Gram-negative bacteria was centrifuged at 4000×g for 3 min, the supernatant was discarded, and the thalli were resuspended with fresh LB medium.
(§2) 2. The above-mentioned bacterial suspensions were diluted and inoculated into 96-well plates with the final concentration of the bacterial suspension being 5×10^5 CFU/mL per well.
(§3) 3. Each of the purified human-originated EGF domain proteins (PRT1 to PRT1498 in Table 1) was added to each of the above wells and subjected to two-fold serial dilution in concentration. Three parallel wells were set up for each concentration in the gradient.
(§4) 4. The above-mentioned 96-well plates were placed and cultured at 37° C. in shaking incubator shaking at 175 rpm. […] The minimal inhibitory concentration MIC is defined as the lowest concentration of the recombinant protein at which there is no growth of the bacteria.

[3] = system: Pseudomonas aeruginosa; test: MIC against Gram-negative bacteria: Pseudomonas aeruginosa; details: for MIC (μg/mL) P. aeruginosa / MIC against P. aeruginosa / MIC P. aeruginosa: 5×10^5 CFU/mL
Method: as §1, §2, §3, §4

[4] = system: Klebsiella pneumonia; test: MIC against Gram-negative bacteria: Klebsiella pneumonia; details: for MIC (μg/mL) K. pneumonia / MIC against K. pneumonia / MIC K. pneumonia: 5×10^5 CFU/mL
Method: as §1, §2, §3, §4

[5] = system: Enterobacter cloacae; test: MIC against Gram-negative bacteria: Enterobacter cloacae; details: for MIC (μg/mL) E. cloacae / MIC against E. cloacae / MIC E. cloacae: 5×10^5 CFU/mL
Method: as §1, §2, §3, §4

[6] = system: Aeromonas hydrophila; test: MIC against Gram-negative bacteria: Aeromonas hydrophila; details: for MIC (μg/mL) A. hydrophila / MIC against A. hydrophila / MIC A. hydrophila: 5×10^5 CFU/mL
Method: as §1, §2, §3, §4

[7] = system: Citrobacter diversus; test: MIC against Gram-negative bacteria: Citrobacter diversus; details: for MIC (μg/mL) C. diversus / MIC against C. diversus / MIC C. diversus: 5×10^5 CFU/mL
Method: as §1, §2, §3, §4

[8] = system: Moraxella catarrhalis; test: MIC against Gram-negative bacteria: Moraxella catarrhalis; details: for MIC (μg/mL) M. catarrhalis / MIC against M. catarrhalis / MIC M. catarrhalis: 5×10^5 CFU/mL
Method: as §1, §2, §3, §4

[9] = system: Proteus mirabilis; test: MIC against Gram-negative bacteria: Proteus mirabilis; details: for MIC (μg/mL) P. mirabilis / MIC against P. mirabilis / MIC P. mirabilis: 5×10^5 CFU/mL
Method: as §1, §2, §3, §4

[10] = system: Proteus vulgaris; test: MIC against Gram-negative bacteria: Proteus vulgaris; details: for MIC (μg/mL) P. vulgaris / MIC against P. vulgaris / MIC P. vulgaris: 5×10^5 CFU/mL
Method: as §1, §2, §3, §4

[11] = system: Serratia marcescens; test: MIC against Gram-negative bacteria: Serratia marcescens; details: for MIC (μg/mL) S. marcescens / MIC against S. marcescens / MIC S. marcescens: 5×10^5 CFU/mL
Method: as §1, §2, §3, §4

[12] = E. coli BL21, 10 h cultivation at 37° C.
[13] = P. aeruginosa, 10 h cultivation at 37° C.
[14] = K. pneumonia, 10 h cultivation at 37° C.
[15] = E. cloacae, 10 h cultivation at 37° C.
[16] = A. hydrophila, 10 h cultivation at 37° C.
[17] = C. diversus, 10 h cultivation at 37° C.
[18] = M. catarrhalis, 10 h cultivation at 37° C.
[19] = P. mirabilis, 10 h cultivation at 37° C.
[20] = P. vulgaris, 10 h cultivation at 37° C.
[21] = S. marcescens, 10 h cultivation at 37° C.

Substance	MIC [1] [µg/mL]	MIC (μg/mL) E. coli BL21 [2, 12] [µg/mL]	MIC (μg/mL) P. aeruginosa [3, 13] [µg/mL]	MIC (μg/mL) K. pneumonia [4, 14] [µg/mL]	MIC (μg/mL) E. cloacae [5, 15] [µg/mL]	MIC (μg/mL) A. hydrophila [6, 16] [µg/mL]	MIC (μg/mL) C. diversus [7, 17] [µg/mL]	MIC (μg/mL) M. catarrhalis [8, 18] [µg/mL]	MIC (μg/mL) P. mirabilis [9, 19] [µg/mL]	MIC (μg/mL) P. vulgaris [10, 20] [µg/mL]	MIC (μg/mL) S. marcescens [11, 21] [µg/mL]	further results
PRT860 (CKCNGHASRCLLDTQGHLICDCRHGTEGPDCGRCKPFYCDRPWQRATARESHAC; listed as Homo sapiens)	25	12.5	25	50	12.5	50	12.5	50	12.5	50	100	–
PRT526 (CNCNGHSNQCQDGSGICVNCQHNTAGEHCERCQEGYYGNAVHGSCRA; listed as Homo sapiens)	50	–	–	–	–	–	–	–	–	–	–	MIC against E. coli BL21 ([2]; 96-well plate, 37° C., 10 h): 25 µg/mL; MIC against P. aeruginosa ([3]; 96-well plate, 37° C., 10 h): 12.5 µg/mL; MIC against K. pneumonia ([4]; 96-well plate, 37° C., 10 h): 25 µg/mL; MIC against E. cloacae ([5]; 96-well plate, 37° C., 10 h): 50 µg/mL; MIC against A. hydrophila ([6]; 96-well plate, 37° C., 10 h): 25 µg/mL; MIC against C. diversus ([7]; 96-well plate, 37° C., 10 h): 12.5 µg/mL; MIC against M. catarrhalis ([8]; 96-well plate, 37° C., 10 h): 50 µg/mL; MIC against P. mirabilis ([9]; 96-well plate, 37° C., 10 h): 12.5 µg/mL; MIC against P. vulgaris ([10]; 96-well plate, 37° C., 10 h): 50 µg/mL; MIC against S. marcescens ([11]; 96-well plate, 37° C., 10 h): 12.5 µg/mL
PRT231 (DIDECTEMCPINSTCTNTPGSYFCTCHPGFAPSNGQLNFTDQGVECR; listed as Homo sapiens)	12.5	50	12.5	50	12.5	25	12.5	25	12.5	25	12.5	–
PRT623 (CKCNGHASECGPDVAGQLACRCQHNTTGTDCERCLPFFQDRPWARGTAEAAHECLP; listed as Homo sapiens)	12.5	–	–	–	–	–	–	–	–	–	–	MIC E. coli BL21 ([2]; 96-well plate, 37° C., 10 h): 12.5 µg/mL; MIC P. aeruginosa ([3]; 96-well plate, 37° C., 10 h): 12.5 µg/mL; MIC K. pneumonia ([4]; 96-well plate, 37° C., 10 h): 12.5 µg/mL; MIC E. cloacae ([5]; 96-well plate, 37° C., 10 h): 12.5 µg/mL; MIC A. hydrophila ([6]; 96-well plate, 37° C., 10 h): 12.5 µg/mL; MIC C. diversus ([7]; 96-well plate, 37° C., 10 h): 12.5 µg/mL; MIC M. catarrhalis ([8]; 96-well plate, 37° C., 10 h): 50 µg/mL; MIC P. mirabilis ([9]; 96-well plate, 37° C., 10 h): 12.5 µg/mL; MIC P. vulgaris ([10]; 96-well plate, 37° C., 10 h): 25 µg/mL; MIC S. marcescens ([11]; 96-well plate, 37° C., 10 h): 50 µg/mL
PRT1349 (DVDECAVGSDCSEHASCLNVDGSYICSCVPPYTGDGKNCA; listed as Homo sapiens)	50	–	–	–	–	–	–	–	–	–	–	MIC against E. coli BL21 [2, 12]: 25 µg/mL; MIC against P. aeruginosa ([3]; Pseudomonas aeruginosa, 10 h cultivation at 37° C.): 12.5 µg/mL; MIC against K. pneumonia ([4]; Klebsiella pneumonia, 10 h cultivation at 37° C.): 25 µg/mL; MIC against E. cloacae ([5]; Enterobacter cloacae, 10 h cultivation at 37° C.): 50 µg/mL; MIC against A. hydrophila ([6]; Aeromonas hydrophila, 10 h cultivation at 37° C.): 12.5 µg/mL; MIC against C. diversus ([7]; Citrobacter diversus, 10 h cultivation at 37° C.): 50 µg/mL; MIC against M. catarrhalis ([8]; Moraxella catarrhalis, 10 h cultivation at 37° C.): 12.5 µg/mL; MIC against P. mirabilis ([9]; Proteus mirabilis, 10 h cultivation at 37° C.): 50 µg/mL; MIC against P. vulgaris ([10]; Proteus vulgaris, 10 h cultivation at 37° C.): 12.5 µg/mL; MIC against S. marcescens ([11]; Serratia marcescens, 10 h cultivation at 37° C.): 25 µg/mL
PRT208 (CDVQKKCHGHGVCNSNKNCHCENGWAPPNCETKGYGGSVDSGPTYNEMNTALRDG; listed as Homo sapiens)	25	50	25	12.5	25	12.5	25	12.5	25	12.5	25	–
PRT810 (LSAECSASLCFHGGRCVPGSAQPCHCPPGFQGPRCQ; listed as Homo sapiens)	25	50	25	12.5	50	25	50	25	50	50	25	–
PRT980 (NEDDCGPGPPLDSGPRCLHNGTCVDLVGGFRCTCPPGYTGLRCE; listed as Homo sapiens)	12.5	–	–	–	–	–	–	–	–	–	–	MIC [2, 12]: 50 µg/mL; MIC [3, 13]: 12.5 µg/mL; MIC [4, 14]: 50 µg/mL; MIC [5, 15]: 12.5 µg/mL; MIC [6, 16]: 50 µg/mL; MIC [7, 17]: 25 µg/mL; MIC [8, 18]: 12.5 µg/mL; MIC [9, 19]: 50 µg/mL; MIC [10, 20]: 12.5 µg/mL; MIC [11, 21]: 50 µg/mL
PRT814 (QEICPACQHAARCDPETGACLCLPGFVGSRCQ; listed as Homo sapiens)	25	25	50	12.5	12.5	25	12.5	25	12.5	12.5	12.5	–
PRT892 (DIDECDPDPCHYGSCKDGVATFTCLCRPGYTGHHCE; listed as Homo sapiens)	25	12.5	25	25	50	12.5	50	12.5	50	25	25	–
PRT666 (DDNECLRDPCKGKGRCINRVGSYSCFCYPGYTLATSGATQECQ; listed as Homo sapiens)	12.5	–	–	–	–	–	–	–	–	–	–	MIC E. coli BL21 ([2]; 96-well plate, 37° C., 10 h): 25 µg/mL; MIC P. aeruginosa ([3]; 96-well plate, 37° C., 10 h): 50 µg/mL; MIC K. pneumonia ([4]; 96-well plate, 37° C., 10 h): 25 µg/mL; MIC E. cloacae ([5]; 96-well plate, 37° C., 10 h): 12.5 µg/mL; MIC A. hydrophila ([6]; 96-well plate, 37° C., 10 h): 25 µg/mL; MIC C. diversus ([7]; 96-well plate, 37° C., 10 h): 50 µg/mL; MIC M. catarrhalis ([8]; 96-well plate, 37° C., 10 h): 25 µg/mL; MIC P. mirabilis ([9]; 96-well plate, 37° C., 10 h): 12.5 µg/mL; MIC P. vulgaris ([10]; 96-well plate, 37° C., 10 h): 25 µg/mL; MIC S. marcescens ([11]; 96-well plate, 37° C., 10 h): 25 µg/mL
